Test results taken from PubChem BioAssay AID1508642 (National Center for Advancing Translational Sciences (NCATS), 2021).
Among all 43,000 compounds or so, about 200 (0.47%) were called active. Not shown: some 12% with an inconclusive outcome. Calls follow the shape of the dose curve; as a rule, active = well fitted cell-killing curve with a large enough effect; inconclusive = small, poorly fitted or top-dose-only effect, or effect the other way; inactive = flat fitted curve, though single readings scatter. This is one part of the list.

Assay: Cell viability qHTS assay in S16 Pmp22-F2sN cells; also: nearly all actives have a fitted effect of over 65% in size
Conditions: S16 Pmp22-F2sN Schwann cells (luciferase reporters placed in the Pmp22 gene) viability, CellTiter-Glo, 24 h; series mostly up to 57.5 µM; activity change, negative = cytotoxicity: at the top concentration
Summary of the method: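 Luminescence from CellTiter-Glo, read by CCD camera after a 15 min room-temperature incubation, served as the viability signal. Reporter Schwann cells (S16 Pmp22-F2sN) had been treated with pin-transferred compounds for 24 h at 37C.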
% is scaled to controls: 0 for no effect and ±100 for the full control effect.

Structure (SMILES) | activity change, negative = cytotoxicity
Cc1cc(C)n2c(Nc3ccccc3C)c(-c3cccs3)nc2n1 | inactive: 1.01%
COc1ccc(-n2nc(C(=O)Nc3ccc(Br)cc3C)c3c4ccccc4n(C)c3c2=O)cc1 | inactive: 1.95%
COc1ccc(C(=O)N2CC(=O)Nc3ccc(C)cc3C2c2ccccc2)cc1OC (stereo not given) | inactive: -0.596%
Cc1ccc(CN2C(=O)c3ccccc3Sc3ccc(C(=O)NCc4ccco4)cc32)cc1 | inactive: -8.16%
COc1ccc(C(=O)NCC(c2ccc3c(c2)OCO3)N2CCOCC2)cc1 (stereo not given) | inactive: 11.8%
Cc1ccc(S(=O)(=O)N(CC(O)Cn2c3ccccc3c3ccccc32)c2cccc(C(=O)N(C)C)c2)cc1 (stereo not given) | inactive: -19.2%
COc1ccc(C2=NN(S(C)(=O)=O)C(c3cn(-c4ccccc4)nc3-c3cccs3)C2)cc1 (stereo not given) | inactive: -2.65%
Cc1ccc(-c2nc3ccccn3c2Nc2ccc3c(c2)OCCO3)s1 | inactive: 17.5%
O=C(Cc1ccc(NC(=O)N2CCSc3ncccc32)cc1)NCc1ccccc1 | inactive: 1.28%
Cc1cc(C)cc(NC(=O)Cn2c(=O)n(C(C)C)c(=O)c3oc4ccccc4c32)c1 | inactive: 10%
Cc1oc2ncnc(N3CCOCC3)c2c1C(=O)N1CCN(c2cccc(C(F)(F)F)c2)CC1 | inactive: 2.86%
COc1cccc(-c2ccnc3c(-c4ccc(F)cc4)c(C)nn23)c1 | inactive: 22.1%
CCCn1c(=N)c(C(=O)NCc2cccnc2)cc2c(=O)n3cccc(C)c3nc21 | inactive: 29.8%
COc1ccc(NC(=O)C2=C(C)Nc3ncnn3C2c2ccc(C)o2)cc1 (stereo not given) | inactive: 7.29%
CCN(C(=O)C1CCC(CNS(=O)(=O)c2cccc3nsnc23)CC1)c1ccccc1 (stereo not given) | inactive: -23.8%
CC1(C)CC(=O)c2cc(C(=O)Nc3ccc(Br)cc3)c(=O)[nH]c2C1 | inactive: 0.302%
CCN(C(=O)C1CCC(CNS(=O)(=O)c2cccc3nsnc23)CC1)c1cccc(C)c1 (stereo not given) | inactive: -10.2%
O=C(COc1ccc(Cl)cc1)N(Cc1ccco1)c1ccccn1 | inactive: -2.85%
Cc1cc(C)c(NS(=O)(=O)c2ccc3c(c2)NC(=O)CCS3)c(C)c1 | inactive: 19.6%
CCOC(=O)c1cc(-c2ccccc2)n(CC(=O)Nc2cc(Cl)c(OC)cc2OC)c1C | inactive: -22.8%
Cc1cc(C)cc(Nc2ncnc3sc4c(c23)CCCC4)c1 | inactive: 12.8%
Cc1cccc(Cn2c(CNC(=O)c3ccccc3)nc3ccccc32)c1 | inactive: 1.94%
Cc1ccn2c(Nc3ccc(C(C)C)cc3)c(-c3ccsc3)nc2c1 | inactive: 5.05%
CC(C)OCCCNC(=O)c1c2c(nc3ccccc13)C(=O)N(C1CCCCC1)C2 | inactive: 4.1%
CCCCCOc1ccccc1Cn1c(=O)oc2ccc(C)cc21 | inactive: -0.787%

Structure (SMILES) | activity change, negative = cytotoxicity
Cc1nn(C(C)C(=O)Nc2cccc(F)c2)c(=O)c2c1sc1ccccc12 (stereo not given) | inactive: -0.882%
COCCNC(=O)CCSc1nc(-c2ccc(OC)cc2)cc(C(F)(F)F)n1 | inactive: 27.8%
Cc1ccc(Nc2c(-c3ccc(N4CCOCC4)cc3)nc3ncccn23)c(C)c1 | inactive: 0.765%
Cc1cccc(-c2nc(S(=O)(=O)c3ccccc3)c(N3CCN(c4ccccc4)CC3)o2)c1 | inactive: 4.72%
CSc1ccc(-c2nc3cc(C)ccn3c2Nc2ccc(C)cc2)cc1 | inactive: -2.34%
CCc1ccc(NC(=O)C(=O)NCCc2sc(-c3ccc(C)cc3)nc2C)cc1 | inactive: 3.51%
O=C(CSc1nc2c(c(=O)[nH]1)CCC2)Nc1cc(C(F)(F)F)ccc1Cl | inactive: -2.68%
Cc1ccc(C(=O)c2cn(Cc3ccccc3)c3cc4c(cc3c2=O)OCCO4)cc1 | inactive: 0.515%
CCc1cccc(NC(=O)CSc2nccn2C)c1 | inactive: 0.372%
CCOC(=O)c1cc(S(=O)(=O)Nc2cc(C)c(Cl)cc2OC)[nH]n1 | inactive: -4.13%
Cn1ccc2c(OCC(=O)NCc3ccc(F)cc3)cccc2c1=O | inactive: -3.93%
CCCCn1c(C2CC(=O)N(c3ccc(OCC)cc3)C2)nc2ccccc21 (stereo not given) | inactive: 3.86%
O=C(OCC1CCCO1)c1ccc2c(c1)N(Cc1c(F)cccc1Cl)C(=O)c1ccccc1S2(=O)=O (stereo not given) | inactive: 8.78%
CCc1nnc(NC(=O)c2nc(SCc3ccc(F)cc3)ncc2Cl)s1 | inactive: 12.4%
CCOc1ccc(OCC)c(NS(=O)(=O)c2ccc3c(c2)CCCN3C(C)=O)c1 | inactive: 0.949%
CCC(C(=O)NC1CCCCC1)n1nc(C)c2sc3ccccc3c2c1=O (stereo not given) | inactive: 2.32%
O=C(Nc1ccccc1C(F)(F)F)C1CCN(c2nnc(-n3cccc3)s2)CC1 | inactive: -5.64%
Cc1ccc(Cl)cc1N1CCN(C(=O)c2cnc3c(-c4ccc(F)cc4)c(C)nn3c2C)CC1 | inactive: 2.39%
O=C(Cn1cc(SCc2ccc(F)cc2)c2ccccc21)N1CCCC1 | inactive: -0.86%
CCN(CC)S(=O)(=O)c1ccc2c(c1)c(=O)c(C(=O)N1CCN(c3cc(C)ccc3C)CC1)cn2C | inactive: 1.7%
CCOCCn1c(=NC(=O)c2ccc3c(c2)OCCO3)sc2cc(OCC)ccc21 | inactive: 11.6%
Cc1cc(C)c(NC(=O)c2ccc3nc(C(C)C)oc3c2)c(C)c1 | inactive: -4.27%
COCC(C)NC(=O)C1=CC(c2ccc3c(c2)OCO3)=NS(=O)(=O)N1C (stereo not given) | inactive: 1.03%
O=S(=O)(c1ccc2nc(Nc3ccc(Br)cc3F)ccc2c1)N1CCCC1 | inactive: 11.5%
O=C(Cn1nc2c(cc1=O)CCCC2)NCc1ccccc1 | inactive: -0.916%
